These results are taken from PubChem BioAssay AID1963576 (National Center for Advancing Translational Sciences (NCATS), 2024).

SMILES strings stand for the structures. About 60 (0.1%) of roughly 46,000 compounds were called active. Not shown: some 3% with an inconclusive outcome. Calls come from the whole dose curve; as a rule, active = well fitted inhibition curve with a large enough effect; inconclusive = small, poorly fitted or top-dose-only effect; inactive = no such curve, though single readings can be large or run the other way. This is one part of the list.

A short description of the assay: Primary qHTS assay for Inhibitors of ovarian cancer metastasis using an organotypic tumor microenvironment (TME) model.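 For activity change, negative = inhibition: plate controls were DMSO wells for no effect and tomatine positive control wells for full effect.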 Note: nearly all actives have a fitted effect of over 65% in size. The conditions noted are these: SKOV3ip1-GFP adhesion/invasion on 3D omental model, fluorescence; series mostly up to 45.8 µM; activity change, negative = inhibition: at the top concentration. The gist of the method: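 Adhesion/invasion was scored as fixed GFP-labeled SKOV3ip1 cell counts (488/509 nm), normalized to DMSO and tomatine controls. Cancer cells in serum-free medium, with four compound doses (0.36-46 umol/L), sat 2 hr at RT then 16 hr at 37 C on a 48 hr fibroblast/mesothelial/ECM culture.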
On to `Cc1cc(NC(=O)c2cc(-c3ccc(Cl)cc3)on2)nn1Cc1ccc(Cl)cc1`, for which the “activity change, negative = inhibition” value is inactive: -9.01%.

For `Cc1cccc(Cc2c(C)nc3nc(SCc4ccccc4C)nn3c2C)c1`, the “activity change, negative = inhibition” value is inactive: 2.38%.

In the case of `CC(=O)c1ccc(NC(=O)CCc2c(C)nc3cc(-c4ccc(Cl)cc4)nn3c2C)cc1`, the “activity change, negative = inhibition” value was inactive: -13.5%.

Take `COc1cccc(-n2c(SCc3ccccc3C)nc3c([nH]c4ccccc43)c2=O)c1`: the “activity change, negative = inhibition” value is inactive: -8%.

As for `Cc1ccc(CNC(=O)CN2C(=O)C3CCCCN3c3ccc(C(=O)N4CCCC4)cc32)cc1` (centres undefined), the “activity change, negative = inhibition” value is inactive: 2.5%.

`O=C(NCc1ccccc1Cl)c1ccc2c(O)c(S(=O)(=O)c3ccccc3)c(=O)[nH]c2c1`: the “activity change, negative = inhibition” value was inactive: 1.01%.

`COc1ccc(Cl)cc1C(=O)Nc1ccc(-c2nnc3n2CCCCC3)cc1`: the molecule was called inactive.

As for `COc1cccc(NC(=O)C2CCN(C(=O)N3CC(C)Oc4ccccc43)CC2)c1` (centres undefined), the “activity change, negative = inhibition” value was inactive: 2.97%.

Consider `COc1cccc(Cn2c(=O)n(-c3ccccc3C)c(=O)c3c2c2cc(C)ccc2n3C)c1`, for which the result was inactive.

Turning to `Cc1ccc(C)c(N2CCN(c3cc(C)nc4c(-c5ccc(Cl)cc5)c(C)nn34)CC2)c1`, the result was inactive.

For the molecule `Cc1cc(C)cc(OCC(=O)NCC2(N(C)C)CCCCC2)c1`, the “activity change, negative = inhibition” value was inactive: 12.5%.

Take `CCOC(=O)C1=C(CS(=O)(=O)c2ccc(F)cc2)NC(=O)NC1c1ccc(OCC)c(OC)c1` (centres undefined): the result was inactive.

For the molecule `CCc1nn(CC(=O)NC(C)c2ccccc2)c(=O)c2cc3sccc3n12` (centres undefined), the molecule was classed as inactive.

Consider `CCOc1ccc(NC(=O)Cn2nnc(C(=O)Nc3ccc(OCC)cc3)c2N)cc1`, for which the “activity change, negative = inhibition” value was inactive: -15.9%.

Turning to `CC(C)CCNC(=O)[C@@H](c1ccccc1)N1Cc2ccccc2C1=O`, the molecule was called inactive.

For the molecule `O=C(COc1ccccc1-c1nc(-c2ccccc2)no1)Nc1ccccc1[N+](=O)[O-]`, the “activity change, negative = inhibition” value was inactive: -1.24%.

Regarding `Cc1ccc(S(=O)(=O)N2CCC(c3ccncc3)CC2)c(C)c1`, the “activity change, negative = inhibition” value is inactive: -20.8%.

Turning to `CCCc1cc(=O)n2[nH]c(NCc3ccccc3OC)nc2n1`, the “activity change, negative = inhibition” value was inactive: -5.37%.

As for `CCOC(=O)c1ccc(NC(=O)C(Cc2ccccc2)NS(=O)(=O)c2ccc(Br)s2)cc1` (centres undefined), the “activity change, negative = inhibition” value is inactive: -10.5%.

With `Cc1cc(C)cc(Nc2sc(C(=O)c3ccccc3)c(N)c2S(=O)(=O)c2ccccc2)c1`, the “activity change, negative = inhibition” value is inactive: 16.1%.

Regarding `CCOC(=O)c1c(C)oc2nc(C)nc(NCc3ccccc3OCC)c12`, the “activity change, negative = inhibition” value was inactive: -3.57%.

In the case of `COc1cc(OC)c(NS(=O)(=O)c2ccc3c(c2)NC(=O)CCS3)cc1Cl`, the “activity change, negative = inhibition” value is inactive: 6.26%.

For `Cc1ccc(S(=O)(=O)NCCSc2nnnn2-c2ccc(Cl)c(C(=O)O)c2)cc1`, the result was inactive.

On to `CC(=O)Nc1ccc(C2Nc3c(C)cc(C)cc3-c3cc(C)nn32)cc1` (centres undefined), for which the “activity change, negative = inhibition” value is inactive: 0.703%.

For `O=C(NCc1ccccc1Cl)C1CCCN(c2ncnc3onc(-c4ccc(F)cc4)c23)C1` (centres undefined), the “activity change, negative = inhibition” value was inactive: -12.8%.

Regarding `CCCc1nc2ccccc2n2c(-c3cccc(C)c3)c3c(=O)n(C)c(=O)n(C)c3c12`, the call was inactive.

On to `O=C(NCC(c1ccco1)S(=O)(=O)c1cccs1)c1ccc(C(F)(F)F)cc1` (centres undefined), for which the “activity change, negative = inhibition” value is inactive: 2.5%.

As to `CCn1cc2nc(SCc3ccccc3)n(Cc3ccc(C)cc3)c(=O)c2n1`, the outcome was inactive.

Consider `COc1cccc(NC(=O)Nc2cc(-c3cn4cccnc4n3)ccc2OC)c1`, for which the result was inactive.

Take `CN(C)c1ccc(CNS(=O)(=O)c2csc(C(N)=O)c2)cc1`: the “activity change, negative = inhibition” value is inactive: 16.3%.

With `CCOc1cc(Cl)c(S(=O)(=O)n2cc(C)nc2CC)cc1Cl`, the call was inactive.

In the case of `Clc1ccc(-c2noc3ncnc(N4CCCCC4)c23)cc1`, the “activity change, negative = inhibition” value is inactive: -2.63%.

Regarding `COc1ccc(C)cc1NC(=O)c1cc(S(=O)(=O)NCCC2=CCCCC2)ccc1F`, the “activity change, negative = inhibition” value was inactive: 0.35%.

With `Cc1cc(C(C)(C)C)cc(C)c1CC1=NCCN1`, the “activity change, negative = inhibition” value was inactive: 6.54%.

With `Cc1ccccc1NC(=O)CSc1nc2ccc(NC(=O)c3ccco3)cc2s1`, the “activity change, negative = inhibition” value is inactive: -7.11%.

`CCCSc1nc2c(c(=O)[nH]1)C(c1ccc(O)c(OCC)c1)CC(=O)N2` (centres undefined): the “activity change, negative = inhibition” value is inactive: -23.4%.

Regarding `COc1ccc(C(=O)NCCc2nc3ccccc3[nH]2)cc1`, the result was inactive.

With `Cn1c(=O)c2c(nc(NCc3ccccc3)n2Cc2ccc(Cl)c(Cl)c2)n(C)c1=O`, the “activity change, negative = inhibition” value was inactive: -3.03%.

Turning to `CC(C)(CO)[C@@H](O)C(=O)NCCC(=O)O`, the “activity change, negative = inhibition” value was inactive: -4.68%.

On to `COc1ccc(N2CC(C(=O)Nc3ccccc3-c3nc(-c4ccc(C)cc4)no3)CC2=O)cc1` (centres undefined), for which the “activity change, negative = inhibition” value is inactive: 9.8%.

In the case of `Cc1ccccc1CSCc1ccc(C(=O)NCCc2ccccc2)o1`, the “activity change, negative = inhibition” value is inactive: -8%.

Take `CC(C)(C)c1ccc(OCc2cc(=O)n3c4c(sc3n2)CCCC4)cc1`: the call was inactive.

With `COc1cccc(NC(=O)c2oc3ccc(S(=O)(=O)N4CCC5(CC4)OCCO5)cc3c2C)c1`, the “activity change, negative = inhibition” value was inactive: -2.8%.

On to `CCOc1ccc(C(CC(=O)Nc2ccc(C(=O)OC)cc2)N2Cc3ccccc3C2=O)cc1OC` (centres undefined), for which the “activity change, negative = inhibition” value was inactive: -3.23%.

Take `CCOc1ccc(CCNC(=O)CCSCc2cccc(Cl)c2)cc1OCC`: the molecule was classed as inactive.

As for `COc1ccccc1NC(=O)CSc1nc(-c2cccc(Cl)c2)nc2c1Cc1c(CO)cnc(C)c1O2`, the “activity change, negative = inhibition” value was inactive: 3.02%.

With `Oc1c(C(c2ccc(Cl)cc2Cl)N2CCCC2)sc2nc(-c3ccco3)nn12` (centres undefined), the “activity change, negative = inhibition” value is inactive: -9.84%.

Turning to `CCc1ccc(C(=O)c2cn(Cc3ccccc3)c3cc(OC)c(OC)cc3c2=O)cc1`, the “activity change, negative = inhibition” value is inactive: 1.51%.

In the case of `CCc1ccc(-n2nc(C)c3c(C)cc(=O)n(CC(=O)N(CC)Cc4ccccc4)c32)cc1`, the “activity change, negative = inhibition” value was inactive: 7.64%.
